Target: ACE2-His fusion protein (human, UniProt Q9BYF1)
Experiment: BLI; Octet RED96; ACE2-His (10 μg/mL) captured on Ni-NTA biosensors; APOE3 or APOE4 at 62.5-1000 nM; SD buffer (PBS pH 7.4, 0.05% Tween 20, 0.01% BSA), 30 °C, 1000 rpm; 1:1 binding model
Conditions: both partners purified

Sequence of UniProt Q9BYF1 (Q9BYF1 18-740): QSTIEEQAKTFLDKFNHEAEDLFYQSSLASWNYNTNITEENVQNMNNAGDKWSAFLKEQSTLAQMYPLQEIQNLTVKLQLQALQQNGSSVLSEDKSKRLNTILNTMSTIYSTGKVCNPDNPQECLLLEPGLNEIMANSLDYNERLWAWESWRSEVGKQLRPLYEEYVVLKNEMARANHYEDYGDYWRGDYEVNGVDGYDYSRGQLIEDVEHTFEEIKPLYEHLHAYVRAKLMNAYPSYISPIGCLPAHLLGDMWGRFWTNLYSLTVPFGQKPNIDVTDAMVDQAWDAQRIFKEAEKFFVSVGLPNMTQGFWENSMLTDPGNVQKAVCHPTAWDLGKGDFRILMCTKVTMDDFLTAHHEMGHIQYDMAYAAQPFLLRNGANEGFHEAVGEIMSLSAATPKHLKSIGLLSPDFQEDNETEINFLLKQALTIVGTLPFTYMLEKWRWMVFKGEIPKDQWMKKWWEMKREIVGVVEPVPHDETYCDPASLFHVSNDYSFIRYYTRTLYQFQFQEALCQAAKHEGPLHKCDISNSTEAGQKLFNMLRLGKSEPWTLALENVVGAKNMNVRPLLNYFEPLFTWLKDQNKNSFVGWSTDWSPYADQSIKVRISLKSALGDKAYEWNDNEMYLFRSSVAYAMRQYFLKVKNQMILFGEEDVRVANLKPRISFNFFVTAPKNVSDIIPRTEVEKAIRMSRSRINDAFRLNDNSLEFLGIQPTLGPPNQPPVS

B1: recombinant human APOE4 protein (natural protein)
chain: not shown
notes: also called recombinant APOE4
How did the Kd turn out when B1 was run?
Its Kd is 190 ± 2.23 nM.

Reference: paper PMC9340718 (Signal Transduction and Targeted Therapy, 2022)
